We go through 1 compound from patent EP3138561A1 (priority 2014, dated 2015).

The subject of data set [1] is Burkholderia cepacia. The conditions noted are these: 0.05%, 0.1%, and 0.2% solutions.
In data set [2] the test system is Pseudomonas aeruginosa. The conditions noted are these: 0.02 wt%, 0.05 wt%, and 0.1 wt% solutions.

As to `CC1CCC(C(C)C)C(OC(=O)C[N+](C)(C)CCCCCCCCCC[N+](C)(C)CC(=O)OC2CC(C)CCC2C(C)C)C1` (stereo not shown) [decamethoxine, 1,10-decamethylene-bis(N,N-dimethyl-menthoxycarbonylmethyl)ammonium dichloride], in data set [1], the Mean therapy time was determined as 5 days. In data set [2], the “bronchospasm or cough on inhalation” value is given as “no bronchospasm or cough had been observed”; the “creatinine and urea levels” value is “no increase in creatinine and urea levels”; the tolerance of inhalations result is listed as “well tolerated”.
